# The whole screen tested about 220,000 compounds, of which about 16,000 (7.3%) were called active. The inconclusive results got no clear call from the source; some entries with a clear call stand among them for comparison. Calls come from the whole dose curve; as a rule, active = well fitted inhibition curve with a large enough effect (not every such curve was filed as active); inconclusive = small, poorly fitted or top-dose-only effect, or another doubt; inactive = no such curve, though single readings can be large or run the other way. Potencies of inconclusive entries are left out as doubtful fits.
# Biological target: Aldehyde dehydrogenase 1A1 (Homo sapiens) (UniProt P00352)
# Assay: qHTS Assay for Inhibitors of Aldehyde Dehydrogenase 1 (ALDH1A1)
# Settings: Purified ALDH1A1, NADH fluorescence, propionaldehyde substrate; series mostly up to 75.3 µM
# Potency is the fitted concentration of half-maximal effect; tags give direction and shape of the fitted curve.
# UniProt P00352, sequence (P00352 whole entry, looked up): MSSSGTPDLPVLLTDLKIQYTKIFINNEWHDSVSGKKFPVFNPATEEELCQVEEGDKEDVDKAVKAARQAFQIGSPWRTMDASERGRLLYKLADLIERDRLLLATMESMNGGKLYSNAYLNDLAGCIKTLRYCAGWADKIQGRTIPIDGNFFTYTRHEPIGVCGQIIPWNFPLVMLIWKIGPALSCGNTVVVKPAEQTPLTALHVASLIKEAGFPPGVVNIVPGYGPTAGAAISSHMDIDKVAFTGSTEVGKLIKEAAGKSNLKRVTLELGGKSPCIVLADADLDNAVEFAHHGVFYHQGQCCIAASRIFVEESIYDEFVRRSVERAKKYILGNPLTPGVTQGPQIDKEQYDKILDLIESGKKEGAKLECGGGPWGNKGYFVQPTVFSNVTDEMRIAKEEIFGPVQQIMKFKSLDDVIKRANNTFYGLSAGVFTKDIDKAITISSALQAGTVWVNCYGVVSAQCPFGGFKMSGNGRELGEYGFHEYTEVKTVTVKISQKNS
row,Structure (SMILES),Potency
1,O=C(Cn1sc2ccccc2c1=O)NC12CC3CC(CC(C3)C1)C2,active: 0.0708 µM
2,CC(=O)c1ccc(NC(=O)C2CCN(S(=O)(=O)c3cccc4cccnc34)CC2)cc1,inactive
3,Cc1cc(/C=N/O)c(C)n1-c1ccc(Br)cc1,active: 8.91 µM
4,COc1ccc(C(=O)Nc2nc(-c3cccs3)c(NC(C)=O)s2)cc1,"inconclusive [inhibitor, single point]"
5,Cc1ccc(-c2ccc(/C=C(\C#N)C(N)=S)n2C)cc1,"inconclusive [inhibitor, single point]"
6,O=S1(=O)N=C(N(CCO)/N=C/c2ccccc2)c2ccccc21,"inconclusive [inhibitor, single point]"
7,COC(=O)c1c(NC(C)=O)sc2c1CCCCC2,active: 15.8 µM
8,COCCn1c(C)cc(C2=NNC(=Nc3ccccc3)SC2)c1C,"inconclusive [inhibitor, single point]"
9,O=C(NC(Cc1c[nH]c2ccccc12)C(=O)O)c1cccs1 (centres undefined),inactive
10,O=C(CSc1nc2c(c(=O)[nH]1)CCCC2)Nc1ccc(Cl)cc1F,"inconclusive [inhibitor, single point]"
11,CC(SCC(=O)NC(C)C1CC2CCC1C2)C(=O)O (centres undefined),inactive
12,c1ccc2c(NC3C4CC5CC(C4)CC3C5)nc(N3CCOCC3)nc2c1 (centres undefined),"inconclusive [inhibitor, single point]"
13,Cc1ccccc1-n1nc(-c2ccc(N)cc2)cc1N,"inconclusive [inhibitor, single point]"
14,CC1=C(C(=O)OC(C)C)C(c2ccccc2)NC(=S)N1C (centres undefined),"inconclusive [inhibitor, single point]"
15,CC(C)Cn1c(=O)c(C(=O)N/N=C/c2cccc(F)c2)c(O)c2ccccc21,inactive
16,CCc1ccc(C(=O)NC(CCSC)C(=O)OC)cc1 (centres undefined),inactive
17,O=C(c1ccccc1)c1ccc(N2CCOCC2)c(NC(=O)c2ccco2)c1,active: 31.6 µM
18,COc1cc(/C=C2\SC(=Nc3ccccc3)N(CCc3c[nH]c4ccccc34)C2=O)ccc1OC(C)C(=O)O (centres undefined),inactive
19,O=C(NO)c1ccc(OC(F)F)cc1,inactive
20,Cc1ccc(CNC(=O)c2ccc3c(=O)n(CC4CCCO4)c(=S)[nH]c3c2)cc1 (centres undefined),"inconclusive [inhibitor, full curve]"
21,CC(C)CCOCc1nc2sc3c(c2c(=O)[nH]1)CCC(C)C3 (centres undefined),"inconclusive [inhibitor, partial curve]"
22,CC(C)=C1C2C=CC1C(C(=O)Nc1cccc(C)c1)C2C(=O)O (centres undefined),"inconclusive [inhibitor, single point]"
23,O=[N+]([O-])c1ccc(/C=N/Nc2nc(NCc3ccccc3)nc(N3CCOCC3)n2)cc1,"inconclusive [inhibitor, single point]"
24,O=C(O)C1CC=CCC1C(=O)NCCCCc1ccccc1 (centres undefined),"inconclusive [inhibitor, single point]"
25,COC(=O)CSc1cc([N+](=O)[O-])cc2c1c(C1OCCO1)nn2-c1ccccc1,inactive

row,Structure (SMILES),Potency
1,CC(=O)N1CC=CC1(C)C(=O)NCC1CC1 (centres undefined),"inconclusive [inhibitor, single point]"
2,O=C(CC1CCCCC1)NC1CCCC1,inactive
3,c1ccc(N(c2ccccc2)c2nc(N3CCOCC3)nc(N3CCOCC3)n2)cc1,inactive
4,CCCc1nc2oc3c(NCC4CCCO4)ncnc3c2c2c1COC(C)(C)C2 (centres undefined),"inconclusive [inhibitor, partial curve]"
5,CC(C)C(NS(=O)(=O)c1cccc2nsnc12)C(=O)N1CCc2ccccc2C1 (centres undefined),"inconclusive [inhibitor, single point]"
6,CCN(Cc1cc2ccccc2[nH]c1=O)S(=O)(=O)c1ccccc1,"inconclusive [inhibitor, single point]"
7,Cc1ccc(NC(=O)CN2C(=O)C3CCCCN3C(=O)c3ccccc32)cc1 (centres undefined),"inconclusive [inhibitor, single point]"
8,CC(C)n1nc(C(=O)Nc2nc3ccccc3[nH]2)c2ccccc2c1=O,"inconclusive [inhibitor, single point]"
9,CC(=O)c1c(C)[nH]c(C(=O)Nc2ccc3c(c2)OCCO3)c1C,"inconclusive [inhibitor, single point]"
10,CCOC(=O)CSc1ncc(-c2ccc([N+](=O)[O-])cc2)[nH]1,inactive
11,Cc1ccc(NC(=S)N(Cc2ccco2)C(C)c2cccs2)cc1 (centres undefined),inactive
12,Clc1ccc2nc(CSc3nnc4ccccn34)cn2c1,"inconclusive [inhibitor, single point]"
13,COc1ccc(CCNC(=O)CCSc2nc(-c3ccco3)cc(C(F)(F)F)n2)cc1OC,inactive
14,Clc1ccc(-c2nc3ccccn3c2CN2CCCCC2)cc1,inactive
15,CC(C)CCCC(C)NS(=O)(=O)Cc1ccccc1 (centres undefined),"inconclusive [inhibitor, single point]"
16,Clc1cccc(N2CCN(Cc3nc(-c4ccccc4)no3)CC2)c1,"inconclusive [inhibitor, single point]"
17,CCOC(=O)c1ccc(NC(=O)CN2CCN(CCN=CC3=C(O)CC(C)(C)CC3=O)CC2)cc1,"inconclusive [inhibitor, single point]"
18,CCCCn1c2nc3ccccc3nc2c2c(=O)n(C(C)CC)cnc21 (centres undefined),"inconclusive [inhibitor, partial curve]"
19,CCc1ccc2c(CN3CCN(S(=O)(=O)c4ccc5c(c4)OCCO5)CC3)cc(=O)oc2c1,"inconclusive [inhibitor, partial curve, poor fit]"
20,Cn1c(=O)cc(SCC(=O)NCC2COc3ccccc3O2)c2ccccc21 (centres undefined),"inconclusive [inhibitor, single point]"
21,Cc1cccc(N2C(=N)SCC2=O)c1C,inactive
22,CCC(C)(C)n1nnnc1C(c1cc2cc(C)cc(C)c2[nH]c1=O)N1CCN(C(=O)c2ccco2)CC1 (centres undefined),"inconclusive [inhibitor, partial curve]"
23,N#C/C(=C(/O)CSc1ncn[nH]1)c1nc2ccccc2[nH]1,inactive
24,Cc1nn(CCCC(=O)Nc2cccnc2)c(C)c1[N+](=O)[O-],inactive
25,COc1ccc2c(c1)c1nc3n(c(=O)c1n2CC(=O)Nc1cc(C)[nH]n1)CCS3,"inconclusive [inhibitor, partial curve]"

row,Structure (SMILES),Potency
1,COc1ccc2cc(CO)c(Cl)nc2c1,"inconclusive [inhibitor, single point]"
2,CCn1c(SCC(=O)Nc2ccc(C(=O)OC)cc2)nnc1-c1cccs1,inactive
3,Cc1onc(-c2ccccc2Cl)c1C(=O)NCC1CCCO1 (centres undefined),"inconclusive [inhibitor, single point]"
4,COc1ccc(NC(=S)NNC(=O)c2ccccc2OC(F)F)cc1,inactive
5,COc1cc(/C=C2\C(=O)N(CCC#N)N=C2C)ccc1OCC(=O)Nc1ccccc1,active: 12.6 µM
6,COc1ccc2cc(C(=O)C3CCCN(C(=O)c4csnn4)C3)ccc2c1 (centres undefined),"inconclusive [inhibitor, partial curve]"
7,CCCn1c(N)c(C(c2ccc(OC)cc2)N2CCN(c3ccccc3)CC2)c(=O)[nH]c1=O (centres undefined),active: 2.51 µM
8,CC1=NOC(=O)/C1=C/c1ccc(-c2ccc(Cl)cc2)o1,active: 3.98 µM
9,CC1CC(C)CN(S(=O)(=O)c2ccc(C(=O)NN3CCOCC3)cc2)C1 (centres undefined),inactive
10,CCCCSc1nc(O)c(C2OC(=O)c3c2ccc(OC)c3OC)c(=O)n1C (centres undefined),inactive
11,COc1cccc(NC(=O)NC2(C(F)(F)F)Oc3ccccc3O2)c1,active: 35.5 µM
12,Cc1ccc(C#N)c(SCc2nnc(-c3ccc(Cl)cc3)o2)n1,"inconclusive [inhibitor, single point]"
13,Cc1ccccc1NC(=O)c1cccc(S(C)(=O)=O)c1,"inconclusive [inhibitor, single point]"
14,Clc1nc(-c2ccccc2)cc(-c2ccccc2)n1,"inconclusive [inhibitor, single point]"
15,CC1(C)C2C/C(=N\O)C(C)(/[N+]([O-])=C/c3cccc([N+](=O)[O-])c3)CC21 (centres undefined),inactive
16,O=C(c1ccc(F)cc1F)N(Cc1ccccn1)Cc1ccco1,"inconclusive [inhibitor, single point]"
17,COc1ccc(-c2csc(Nc3ncccc3C)n2)cc1OC,"inconclusive [inhibitor, single point]"
18,Cc1c(C(=O)N/N=C/c2ccc(O)c(Br)c2)sc(N)c1C#N,"inconclusive [inhibitor, single point]"
19,CC1CN(C(=O)/C=C/c2ccc([N+](=O)[O-])s2)CC(C)O1 (centres undefined),"inconclusive [inhibitor, partial curve]"
20,COc1ccc2cc(-c3nc4ccccc4n3C)c(=O)oc2c1,"inconclusive [inhibitor, partial curve]"
21,CCOC(=O)C1(CCc2ccccc2)CCN(C(=O)c2occc2C)CC1,"inconclusive [inhibitor, single point]"
22,Cc1onc(-c2c(F)cccc2Cl)c1C(=O)NNC(=O)C1CCN(Cc2cccc(F)c2)CC1,inactive
23,CCO/C=C1\C(=O)N(c2ccccc2)C(=O)c2ccccc21,"inconclusive [inhibitor, partial curve]"
24,Cc1nnc(SCc2ccccc2)nc1/C=C/NOCc1ccc(Cl)cc1Cl,"inconclusive [inhibitor, single point]"
